Experimental findings from the supplement of paper PMC11417369 are described below.

± gives the standard deviation of the averaged measurements. The list shows a part of the results.

The assay relates to PfAP2-G AP2 domain (GST-tagged). Put plainly: gcPBM binding intensity (ln(normalized median fluorescence intensity)); higher = stronger DNA binding. In short, it runs like this: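 An Agilent 4 × 180k array of primer-extended double-stranded 36-bp intergenic genomic probes, with negative controls, was incubated for 1 h with GST-tagged P. falciparum DNA-binding domains expressed in E. coli. Alexa488 anti-GST antibody detected bound protein, scanned at 488 nm. Binding intensity is the highest Masliner-normalised natural-log median intensity across replicate spots of either probe orientation.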
“TAATAATACCCTTGCTGTACCAAATAAAGTTGAATA [XGTACX_site6922]”: the “gcPBM binding intensity (ln)” value came to 10.8 ± 0.64.

With “GTAGCAATAAACATATGTACATATATATATTTTTTC [XGTACX_site5814]”, the “gcPBM binding intensity (ln)” value is 11.1 ± 0.68.

Turning to “AGAAAAAGGAGAAAAAGTACAAAACGGAGTAGTATT [XGTACX_site3858]”, the “gcPBM binding intensity (ln)” value is 11.1 ± 0.59.

Consider “AAAAATTATATACATCATAGAATTAACATTTTAAAT [GTGCAC_negctrl_site369]”, for which the “gcPBM binding intensity (ln)” value was 9.55 ± 0.11.

On to “TTTCATAACAAAAAAGTGCAAAATAGCACGAACATT [GTGCAC_site9703]”, for which the “gcPBM binding intensity (ln)” value was determined as 10.3 ± 0.16.

Turning to “ATTTCTCAATCGTAATGTACAAAAAAAAGGGAAAAG [XGTACX_site2781]”, the “gcPBM binding intensity (ln)” value came out at 10.8 ± 0.62.

“ATATTTAAATAATATTCACACACAAAATTATATTTT [CACACA_site7955]”: the “gcPBM binding intensity (ln)” value was 9.955 ± 0.064.

In the case of “CATATAAAAATATATGCACACAAATAAAAAATTATA [CACACA_site9210]”, the “gcPBM binding intensity (ln)” value turned out to be 10.1 ± 0.11.

Take “ACAAACAAAGAAAGAACACACATACACAATATACCT [CACACA_site5566]”: the “gcPBM binding intensity (ln)” value is 10.055 ± 0.007.

Turning to “ATGACTTACATATATAGTACTTTGTTTTGGAGTTGC [XGTACX_site94]”, the “gcPBM binding intensity (ln)” value is 10.8 ± 0.45.

In the case of “ATAAATATAATAATCATACACACCAAAGAGAATATT [CACACA_site1888]”, the “gcPBM binding intensity (ln)” value turned out to be 9.93 ± 0.11.

On to “AAAGTTATTATGCAATAATTATGATAATTAATATAT [TGCATGCA_negctrl_site316]”, for which the “gcPBM binding intensity (ln)” value came out at 9.73 ± 0.11.

“TATGAGGAAACGTGGTGTACTTTTTTTTAATAAAAA [XGTACX_site1351]”: the “gcPBM binding intensity (ln)” value was 11.6 ± 0.93.

Take “ACATATATATATATATATATATATATATCATTATGT [CACACA_negctrl_site724]”: the “gcPBM binding intensity (ln)” value turned out to be 10.5 ± 0.43.

As to “ATATATTATATATATTGTACATGTAAAATTTTAAAA [XGTACX_site7197]”, the “gcPBM binding intensity (ln)” value was 11.1 ± 0.71.

In the case of “AAAAATTTGGCATACACACACACACCCACACCCACA [CACACA_site587]”, the “gcPBM binding intensity (ln)” value is 10.6 ± 0.44.

As for “TATGTATTTAAATTAACACACATATGTGGTTAATAG [CACACA_site5697]”, the “gcPBM binding intensity (ln)” value was 9.89 ± 0.014.

Regarding “ACTCTTGATCTGAATGCACACAATAAATTATATAAA [CACACA_site1438]”, the “gcPBM binding intensity (ln)” value came out at 10.3 ± 0.4.

For the sequence “AGTATAATAATATTTACACACGCATATGTTATATAT [CACACA_site1476]”, the “gcPBM binding intensity (ln)” value came to 10 ± 0.085.

With “AAAACGCTACATAATTGTACATGTAGAAATAAAAGC [XGTACX_site2895]”, the “gcPBM binding intensity (ln)” value was 11 ± 0.64.

Turning to “TCTAAAAATAAGAACACACACATATAAGCATATAAA [CACACA_site2274]”, the “gcPBM binding intensity (ln)” value stood at 9.92 ± 0.085.

In the case of “TACTGCCTTCCATACCCACACACTTCCCATATATTT [CACACA_site2705]”, the “gcPBM binding intensity (ln)” value was found to be 10.095 ± 0.007.

For “ATTTAAAAAAAAAAAACACACATGTGAATAGAAAAG [CACACA_site3323]”, the “gcPBM binding intensity (ln)” value came out at 10.2 ± 0.23.

As for “TATGTATATATATATATATATATATATATATATATA [TGCATGCA_negctrl_site491]”, the “gcPBM binding intensity (ln)” value was found to be 9.75 ± 0.67.

On to “ATGGCCACTGTGAAATGTACAAAAAAAAAATACAAT [XGTACX_site2874]”, for which the “gcPBM binding intensity (ln)” value turned out to be 11 ± 0.45.

As for “TTCCAAAATTGCACATGTACAAAATTCTCCAATATG [XGTACX_site3419]”, the “gcPBM binding intensity (ln)” value amounted to 10.9 ± 0.62.

Take “TTTATATTATTTAATGAGAAATAATTATAAACAATT [TGCATGCA_negctrl_site65]”: the “gcPBM binding intensity (ln)” value stood at 9.94 ± 0.38.

On to “TTTTTTTTTTTTTTTTGTACATATTTTAATTTGTTT [XGTACX_site6297]”, for which the “gcPBM binding intensity (ln)” value amounted to 10.9 ± 0.99.

“AAAAAAAAAAAATAATGTACATATGTATTTGAGAAA [XGTACX_site3572]”: the “gcPBM binding intensity (ln)” value was 11.1 ± 0.63.

Turning to “CATACAAATTAATATGTACACACAAATATATATATA [CACACA_site8605]”, the “gcPBM binding intensity (ln)” value is 11.5 ± 0.95.

As to “AGTAGTCTGGAGAAAAGTACATAGTATCTGGTAACC [XGTACX_site2024]”, the “gcPBM binding intensity (ln)” value came out at 11.2 ± 0.67.

For “TTTTACAATAATAAGTAGATCTAAATAAAGATTTAA [GTGCAC_negctrl_site547]”, the “gcPBM binding intensity (ln)” value turned out to be 9.62 ± 0.18.

For “TAATTGTACGCCAATACACACAGAATTAAAATGTAG [CACACA_site4234]”, the “gcPBM binding intensity (ln)” value was found to be 11.6 ± 1.1.

Take “TTTTTAAAGTTTTATACACACACCAAAATTATTCTA [CACACA_site600]”: the “gcPBM binding intensity (ln)” value was 10.2 ± 0.26.

Take “TTGCCCATTTAATTAACACACAAATATTTATATTCT [CACACA_site738]”: the “gcPBM binding intensity (ln)” value turned out to be 10.4 ± 0.36.

With “GTTAAATAATATATATGTACATACATAAGTGTTACT [XGTACX_site4778]”, the “gcPBM binding intensity (ln)” value was 11.1 ± 0.57.

“ATTTCCTTTTGTTTCAGTACATAATTTTTTTTTTTT [XGTACX_site4842]”: the “gcPBM binding intensity (ln)” value turned out to be 11.1 ± 0.63.

“GATATTCATAGAAACACACATACAAATTATGTATAT [CACACA_site144]”: the “gcPBM binding intensity (ln)” value was determined as 9.94 ± 0.057.

Turning to “TATGTGCACCCATGTACATGCGGACATATGTTATAT [TGCATGCA_site383]”, the “gcPBM binding intensity (ln)” value is 11.5 ± 0.8.

With “ATACATAAAATTAAAACACACATTTTATTAAATACG [CACACA_site2167]”, the “gcPBM binding intensity (ln)” value is 9.86 ± 0.13.

“AAAAAATATATTTGCACACTCAAAAAAAAAAAAAAA [CACACA_site859]”: the “gcPBM binding intensity (ln)” value came to 9.89 ± 0.35.

With “AGTTATATGGTTAATACACACAACAAATGTTTCTTC [CACACA_site6642]”, the “gcPBM binding intensity (ln)” value turned out to be 10.01 ± 0.085.

Consider “GTGTGATGGTACAATATACACACTTAAAAAAAAAAA [CACACA_site8769]”, for which the “gcPBM binding intensity (ln)” value was found to be 10.8 ± 0.84.

“TACCTAATATGTTATACACACATTATAAGTACATAT [CACACA_site7206]”: the “gcPBM binding intensity (ln)” value is 11.6 ± 0.95.

Regarding “AATATAACTTAGAATTGTACATAAAAAAAAATATAT [XGTACX_site3313]”, the “gcPBM binding intensity (ln)” value stood at 11.1 ± 0.73.

In the case of “TAAGAAATAAATAGTACACACATAGACACACGCACA [CACACA_site6821]”, the “gcPBM binding intensity (ln)” value came to 11.3 ± 0.79.

With “CTCTTTTCTTATAATACACACAGTAATATATATATA [CACACA_site1520]”, the “gcPBM binding intensity (ln)” value was 10.4 ± 0.38.

Take “ATTTATTTATACAAAGTGCAATATTTTGTTAAAGTC [GTGCAC_site9618]”: the “gcPBM binding intensity (ln)” value turned out to be 9.99 ± 0.16.

“AAACAAAATATGGTTCATGAGCAAAAGTTTATTTTG [XGTACX_negctrl_site531]”: the “gcPBM binding intensity (ln)” value came to 9.84 ± 0.085.

Take “AATGTAAAATATAAATGTACATATATATATATATAT [XGTACX_site5071]”: the “gcPBM binding intensity (ln)” value was 11 ± 0.45.

With “TATAAAATACATTTATAATATATATATATATTTTTT [TGCATGCA_negctrl_site435]”, the “gcPBM binding intensity (ln)” value worked out at 9.66 ± 0.11.

In the case of “ATATGAAATATATAAATATGTTTATATATATATATA [GTGCAC_negctrl_site94]”, the “gcPBM binding intensity (ln)” value is 9.89 ± 0.58.

For “TGTGTTTATACGTTTTGTACATATTTTTATTTTGTA [XGTACX_site6425]”, the “gcPBM binding intensity (ln)” value was 11 ± 0.49.

On to “TTTACATCAACCTTTTCACACATTCATATACAGATA [CACACA_site6152]”, for which the “gcPBM binding intensity (ln)” value is 10.1 ± 0.13.

Turning to “TCATTAAAGGAAAAATGTACGTATAAATAAATATAT [XGTACX_site2587]”, the “gcPBM binding intensity (ln)” value was 11.3 ± 0.61.

Consider “TAATGGAAACCATTTATTTTCTGCAATATATTTTTT [CACACA_negctrl_site1653]”, for which the “gcPBM binding intensity (ln)” value was 9.96 ± 0.16.
